# ± gives the standard error. The list shows a part of the results.
# Target: terminal deoxynucleotidyl transferase (calf thymus) (UniProt P06526)
# Test: TdT poly-dT extension signal (Cy3 hybridisation fluorescence, uncapped minus capped) (fluorescence a.u.); higher = more efficient initiation of TdT extension
# Settings: initiator chemistry: L-DNA (mirror-image), free 5'-OH (3'-tethered via HEG linker)
# Procedure: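 All mono- to pentamer D-DNA or L-DNA initiators were made by forward (3'->5') photolithographic in situ synthesis on glass on a hexaethylene glycol linker, leaving a free 5'-OH. Each was made in uncapped and DMTr-dT-capped versions, about 11 replicates each. Arrays were extended with calf thymus TdT (0.2 U/uL), 100 uM dTTP and 0.25 mM CoCl2 for 120 min at 37 C, hybridised with an rA18-Cy3 probe and scanned at 532 nm. The value is the mean uncapped minus the mean capped signal. IDs read 5'->3'. L-DNA is mirror-image; D-DNA 5'-OH initiators were below LOD (no extension).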
# Sequence of UniProt P06526 (P06526 whole entry): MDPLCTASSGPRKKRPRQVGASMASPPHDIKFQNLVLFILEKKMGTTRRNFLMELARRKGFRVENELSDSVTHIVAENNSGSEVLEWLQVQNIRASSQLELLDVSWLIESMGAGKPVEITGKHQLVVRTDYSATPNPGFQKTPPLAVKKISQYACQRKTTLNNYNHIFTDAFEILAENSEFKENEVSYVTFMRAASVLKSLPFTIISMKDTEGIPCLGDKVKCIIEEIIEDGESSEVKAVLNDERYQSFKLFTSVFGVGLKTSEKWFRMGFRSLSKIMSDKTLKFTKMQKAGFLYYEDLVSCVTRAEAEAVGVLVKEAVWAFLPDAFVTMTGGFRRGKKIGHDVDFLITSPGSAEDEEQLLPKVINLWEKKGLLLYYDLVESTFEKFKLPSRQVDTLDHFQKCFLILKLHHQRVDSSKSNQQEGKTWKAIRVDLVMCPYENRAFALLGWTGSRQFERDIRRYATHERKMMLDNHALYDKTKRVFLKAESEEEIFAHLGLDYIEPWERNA
row,Sequence,TdT poly-dT extension signal
1,ATACC,171 ± 18
2,TTGCC,229 ± 20
3,CAGT,38.8 ± 5.3
4,TGCCA,130 ± 11
5,TTAT,340 ± 30
6,TGTTC,108 ± 11
7,ATGGA,155 ± 10
8,GCATA,67.9 ± 7
9,AATG,74.3 ± 5.6
10,CGTTA,41.1 ± 5.7
11,GTGAA,142 ± 17
12,TACGA,194 ± 14
13,CACTT,59.1 ± 7.1
14,TAGCC,105 ± 7.2
15,GTCGC,137 ± 12
16,GAGG,59.6 ± 4.4
17,AACCG,80.8 ± 9.2
18,AAAA,101 ± 5.7
19,TCACA,190 ± 19
20,ATTCA,139 ± 13
21,GATCG,77.2 ± 8
22,CGAGG,82.9 ± 7.5
23,TTCG,284 ± 31
24,CTTGA,148 ± 14
25,GGCTT,54.7 ± 4.6

row,Sequence,TdT poly-dT extension signal
1,ATCCA,153 ± 10
2,CAAGC,70.2 ± 6.8
3,AAGT,44.3 ± 6.8
4,GCGTC,60.1 ± 6.2
5,AAATT,109 ± 9.2
6,TATGG,167 ± 18
7,GAGAC,59.5 ± 6.4
8,GCGT,48.6 ± 8.4
9,TAATA,210 ± 15
10,ATTAA,201 ± 20
11,CTTCT,109 ± 9.2
12,CTAGC,134 ± 8.7
13,CGATT,52.3 ± 5.7
14,TACA,178 ± 8
15,GGTTC,46.3 ± 6.5
16,TACCG,150 ± 11
17,GAATG,89 ± 9.9
18,CTTGG,163 ± 10
19,AGCAC,50 ± 4.6
20,GGGCT,74.1 ± 12
21,CGCCT,48.4 ± 5.6
22,GGGGA,88.4 ± 13
23,CACTC,62.4 ± 8
24,CCGTT,57.2 ± 6.1
25,CCCAC,106 ± 10

row,Sequence,TdT poly-dT extension signal
1,TATC,171 ± 12
2,ATCAA,236 ± 13
3,GCTTA,68.9 ± 7
4,CGCGA,66.2 ± 6
5,CGTG,42.7 ± 6.1
6,TGGT,100 ± 8.5
7,ACCCG,76.1 ± 6.5
8,CGCC,63.3 ± 6.2
9,CACA,64.8 ± 7.9
10,CGGAG,58.9 ± 7.1
11,CGCAT,56.7 ± 7.8
12,TGCTG,140 ± 8.4
13,CAATA,91.3 ± 9.7
14,GATCC,70.6 ± 8.6
15,TTAGT,368 ± 28
16,GGGTA,47.1 ± 6.2
17,ACTTC,66.4 ± 5
18,ATTA,165 ± 11
19,TTCAA,388 ± 29
20,GGTTG,53.8 ± 8.5
21,TTCCG,388 ± 25
22,TTGAT,314 ± 27
23,ATAGC,182 ± 14
24,AACG,74.9 ± 8.3
25,CTCAC,130 ± 12

row,Sequence,TdT poly-dT extension signal
1,GTAAA,239 ± 15
2,GGAAA,76.7 ± 7.8
3,AAACC,73.6 ± 7.5
4,TCTTC,142 ± 12
5,CCAAA,122 ± 7.3
6,AATCC,60.8 ± 6.7
7,AACGC,83.5 ± 7
8,ATACG,188 ± 13
9,TCGTG,120 ± 7.7
10,GTGAT,121 ± 12
11,TAACA,181 ± 12
12,TTTTC,242 ± 27
13,ATATA,192 ± 12
14,GGAAC,95.4 ± 8.1
15,CCCGC,84.8 ± 7.3
16,AGACA,50.8 ± 8.3
17,CATTT,66.2 ± 6.7
18,GTTTT,125 ± 8.3
19,TAGAC,117 ± 15
20,CGAGA,71.9 ± 6.6
21,CGGGG,91.1 ± 10
22,TCTCT,347 ± 200
23,GTATT,158 ± 10
24,TGGCT,113 ± 11
25,GGACG,73.6 ± 7.5

row,Sequence,TdT poly-dT extension signal
1,ATATC,192 ± 14
2,CCCCC,100 ± 6.9
3,TACAC,145 ± 17
4,CAAAC,86.8 ± 10
5,AGGC,36.1 ± 5.6
6,AACAC,95.3 ± 8.9
7,TCACG,181 ± 12
8,ATTCG,127 ± 10
9,CATCC,52.2 ± 5.7
10,TAAGC,144 ± 10
11,TGCCC,133 ± 18
12,GTACA,152 ± 8.5
13,AAGCC,44.4 ± 4.9
14,TCGTA,115 ± 10
15,CTAA,170 ± 12
16,CCGAA,89.7 ± 6.6
17,ATTG,140 ± 12
18,TGATC,198 ± 14
19,TAAG,161 ± 15
20,GAAAC,97.6 ± 6.6
21,CACAT,63.2 ± 10
22,AGGTT,33.1 ± 7.5
23,CAGAG,71.3 ± 6.3
24,ACAAT,93.6 ± 7.7
25,GGGA,68.4 ± 14

row,Sequence,TdT poly-dT extension signal
1,ATAAA,276 ± 19
2,CTGC,102 ± 11
3,AATTT,76.9 ± 8.6
4,AAATC,71.7 ± 7.2
5,TGACT,166 ± 11
6,GGTC,61.6 ± 6.6
7,CTCTA,130 ± 12
8,ACCC,45.2 ± 10
9,TGTAT,145 ± 6.2
10,ATCTG,143 ± 16
11,TACTA,180 ± 15
12,AGCT,55.2 ± 6.6
13,TGCTT,131 ± 9.6
14,TGATA,170 ± 12
15,TCTAC,165 ± 11
16,ATGAC,136 ± 12
17,GTTTG,135 ± 8.7
18,CAGGA,50.6 ± 4.4
19,GGCGT,61.2 ± 7.4
20,AGCTG,46.2 ± 5
21,GTTG,115 ± 11
22,CATA,73.2 ± 8.1
23,GATGG,94.1 ± 6.2
24,AAGG,44.8 ± 6.2
25,CCTGA,96.8 ± 7.2

row,Sequence,TdT poly-dT extension signal
1,CGCCA,56.1 ± 4.7
2,TAGGG,126 ± 8
3,CCCTC,82.2 ± 7.4
4,GAACT,66.5 ± 9.6
5,CGATC,71.4 ± 6.2
6,AGTA,44.2 ± 4.4
7,TCATA,211 ± 17
8,AGCGA,54.6 ± 4.6
9,TTTAC,344 ± 22
10,CCTA,84.4 ± 13
11,ACGAA,76.9 ± 4.9
12,ACGTC,47.1 ± 4.9
13,TTTG,264 ± 15
14,AGCAT,61.6 ± 5.9
15,GCCTC,74.3 ± 12
16,TAAGG,172 ± 10
17,CTGCA,109 ± 8.5
18,CCGCA,75.1 ± 7.1
19,CACGC,57.6 ± 5.8
20,TGGC,106 ± 7.5
21,CGACG,73.6 ± 5.2
22,AGGAC,56.2 ± 5.2
23,CGTTC,51.2 ± 6.6
24,CATC,73.9 ± 8.5
25,ATTC,136 ± 9.9

row,Sequence,TdT poly-dT extension signal
1,GAGT,55.3 ± 6.4
2,TCTGG,169 ± 11
3,TCCAC,220 ± 17
4,GGCGA,68.7 ± 4.6
5,GATA,84.4 ± 9.1
6,TGTT,120 ± 4.8
7,CTGA,130 ± 12
8,GGTCC,37.8 ± 6.6
9,ACTGA,68.6 ± 8.3
10,ATCCT,126 ± 9
11,TGCGT,133 ± 9.2
12,CTTAT,106 ± 7.6
13,ATCGG,198 ± 12
14,CAAG,59.4 ± 8.9
15,TGCT,123 ± 9.8
16,CCACT,90 ± 7.8
17,GTCTT,128 ± 8
18,AAAGG,84.3 ± 8.4
19,GCAAT,88 ± 9.8
20,TGTAC,140 ± 10
21,CCTCA,78.7 ± 8.6
22,GGGTT,75.3 ± 6.3
23,GCACG,87 ± 5.5
24,GGCAA,78.8 ± 10
25,GGCAG,78.3 ± 10

row,Sequence,TdT poly-dT extension signal
1,AACTC,74.5 ± 9.7
2,AACGA,86 ± 7.7
3,TCACC,162 ± 5.5
4,GTGCT,95.1 ± 10
5,TTGCA,228 ± 14
6,CGGTC,31.7 ± 5.1
7,CCGTA,63.1 ± 6.5
8,GATTC,59.6 ± 8.6
9,TAGGA,123 ± 9.3
10,GCAG,59.8 ± 6.3
11,TCAGT,140 ± 11
12,GGGTG,69.1 ± 4.3
13,AGGGA,47.7 ± 5.1
14,GACAG,89.7 ± 6.3
15,AGAC,62.2 ± 6.1
16,ACGAC,64.2 ± 4.2
17,CATG,78.5 ± 10
18,ATGCA,108 ± 11
19,TTGCG,273 ± 13
20,CTGTT,113 ± 11
21,GTCA,95.9 ± 6.2
22,GTACC,143 ± 13
23,TTTCT,270 ± 29
24,CAAA,96.2 ± 6.6
25,GGTGA,59 ± 7

row,Sequence,TdT poly-dT extension signal
1,GGCTG,54.3 ± 3.8
2,AGGGG,74.1 ± 13
3,TGGGA,105 ± 6.2
4,CTCAA,147 ± 10
5,ATAA,243 ± 20
6,AAATA,91.2 ± 8.3
7,CACGG,83.8 ± 5.8
8,CGGGC,61.7 ± 4.4
9,CCGT,58.5 ± 7.2
10,TCGTT,114 ± 9.9
11,TTTCA,281 ± 27
12,TTCA,275 ± 22
13,GAGAA,65.9 ± 4.4
14,GTAT,140 ± 12
15,TATAT,197 ± 14
16,CAGCG,58.2 ± 5.9
17,GGAT,71.4 ± 6.6
18,ACCCC,59.9 ± 9.1
19,GACCC,73.4 ± 6.1
20,GGTGG,89.4 ± 11
21,GCAGG,78.5 ± 7.1
22,GAGGC,53.1 ± 4.1
23,GTTA,139 ± 12
24,CCCCT,99.3 ± 8.6
25,TACTC,147 ± 15

row,Sequence,TdT poly-dT extension signal
1,GTTTA,123 ± 9.7
2,ACTGT,63.6 ± 7.2
3,AGTAG,54.2 ± 7.2
4,CCTC,76.5 ± 9.3
5,ATCAT,172 ± 14
6,ACGGG,72.6 ± 6.7
7,AGGTG,48.6 ± 4.7
8,TTGGA,284 ± 17
9,CCTG,75.8 ± 8.4
10,GGAA,79.2 ± 7.5
11,TGTTG,106 ± 9.6
12,CCCGT,98 ± 11
13,AGAAC,68.8 ± 8.4
14,GGCA,57.1 ± 4.9
15,CGTCC,38.5 ± 4.3
16,TCTAT,183 ± 10
17,ACTAA,100 ± 8.7
18,TCCCG,199 ± 19
19,ACATT,80 ± 10
20,TCTGC,137 ± 12
21,TGTCG,104 ± 7.6
22,AGGCT,29.7 ± 4.2
23,TTGAC,338 ± 26
24,GAAAG,86.3 ± 6.1

# — the supplement of paper PMC8291772
